Assay results taken from PubChem BioAssay AID488969 (Vanderbilt High Throughput Screening Facility, 2010).
In all, about 110,000 compounds were measured (“z-score”: median about -0.1, highest 2% from about 2 on). The list shows a part of the results. Calls of active or inactive are those of the source.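 The calls were made as follows: active = z-score in the third read window above 3 or below -3; inactive = the rest.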

Biological target: Metabotropic glutamate receptor 8 (Rattus norvegicus) (UniProt P70579)
Chain of UniProt P70579 (P70579 whole entry, looked up): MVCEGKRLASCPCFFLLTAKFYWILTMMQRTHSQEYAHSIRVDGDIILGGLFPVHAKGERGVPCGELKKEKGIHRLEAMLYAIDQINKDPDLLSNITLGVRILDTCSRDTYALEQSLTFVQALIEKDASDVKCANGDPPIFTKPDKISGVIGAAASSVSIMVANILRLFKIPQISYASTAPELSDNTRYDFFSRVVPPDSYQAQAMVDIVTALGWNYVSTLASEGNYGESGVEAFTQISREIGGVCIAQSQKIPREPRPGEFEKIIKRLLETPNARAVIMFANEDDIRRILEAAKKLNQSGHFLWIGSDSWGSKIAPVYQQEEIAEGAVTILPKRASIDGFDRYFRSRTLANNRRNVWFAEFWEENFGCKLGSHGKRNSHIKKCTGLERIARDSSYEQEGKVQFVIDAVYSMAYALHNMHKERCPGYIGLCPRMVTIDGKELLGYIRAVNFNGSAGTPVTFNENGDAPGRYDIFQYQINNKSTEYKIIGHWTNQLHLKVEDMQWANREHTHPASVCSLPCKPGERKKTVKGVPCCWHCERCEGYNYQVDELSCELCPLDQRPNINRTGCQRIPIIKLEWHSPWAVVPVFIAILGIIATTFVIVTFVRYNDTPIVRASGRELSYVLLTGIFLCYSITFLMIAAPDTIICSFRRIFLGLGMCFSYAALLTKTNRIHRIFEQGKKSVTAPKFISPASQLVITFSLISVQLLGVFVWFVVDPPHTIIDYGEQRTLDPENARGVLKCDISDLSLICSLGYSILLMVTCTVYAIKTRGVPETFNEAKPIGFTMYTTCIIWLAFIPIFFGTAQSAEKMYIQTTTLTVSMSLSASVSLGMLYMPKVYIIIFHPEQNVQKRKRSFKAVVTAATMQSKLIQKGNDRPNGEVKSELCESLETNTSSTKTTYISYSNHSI
Assay: mGluR8 Gi/Go-coupled signaling modulation – cell-based, rat, thallium flux, HTS, primary screen (AID 488969)
Conditions: HEK293 rat mGluR8, GIRK (G protein-gated inwardly rectifying potassium channel) thallium flux, FluoZin2; at 10 µM; stronger effect = higher value; submaximal glutamate (EC20) added with thallium

Going from OCc1nc2ccccc2n1CCCOc1ccc(Br)cc1 to CCOc1ccc(NC(=O)C2CCCCN2S(=O)(=O)c2ccccc2)cc1 (stereo unspecified), the z-score rises from -0.539 to -0.224.

Going from O=S(=O)(c1ccccc1)N(Cc1nc(-c2ccccc2)no1)C1CCCCC1 to Nc1nc(=S)[nH]c2c1C1(CCCCC1)Cc1ccccc1-2, the z-score rises from -0.141 to 0.537.

First: Cc1cc(Cl)cc2c1NC(=O)[C@]21[C@@H]2C(=O)N(Cc3ccccc3)C(=O)[C@@H]2[C@@H]2CCCN21
Second: O=C1Nc2ccccc2C(O)(C(=O)NCc2ccc3c(c2)OCO3)N1c1ccc(Cl)c(Cl)c1 (stereo unspecified)
The z-score of the first is higher: 0.492 for the first, -0.191 for the second.

Compared with COC(=O)c1cc(NC(=O)CSc2nncn2C)cc(C(=O)OC)c1, CCCCn1c(Cc2ccccc2)nnc1SCC(=O)Nc1cc(C)on1 is higher in z-score: -0.253 for the first, -0.175 for the second.

Compared with Cc1cc(C)c(S(=O)(=O)N2CCN(c3ccc([N+](=O)[O-])c(-n4nc(C)cc4C)c3)CC2)c(C)c1, Cc1ccc(S(=O)(=O)NC2=NCN(CCN3CCOCC3)CN2)cc1 is higher in z-score: -0.485 for the first, 1.32 for the second.

First: O=C1Nc2ccc(Br)cc2C1(O)Cc1ccccn1 (stereo unspecified)
Second: Cc1ccc(Oc2ncccc2/C=N/O)cc1
The z-score of the first is higher: 0.145 for the first, 0.106 for the second.

Compared with CCCC(=O)Nc1nc2nc(C)cc(=O)n2[nH]1, COCCCn1c(SCC(=O)N2CC(=O)Nc3ccccc32)nnc1-c1ccoc1C is higher in z-score: -0.33 for the first, 1.19 for the second.

Going from O=C(COC(=O)/C=C/c1ccc2c(c1)OCO2)NC1CC1 to COCC(=O)NC1CCN(C(=O)Nc2ccc(Br)cc2)CC1, the z-score rises from -0.171 to -0.036.

Compared with Cc1ccc(S(=O)(=O)N2CCCC2CO)cc1 (stereo unspecified), CC1CCN(CCCCOc2ccc([N+](=O)[O-])cc2)CC1 is lower in z-score: 0.351 for the first, 0.0148 for the second.

Going from CC12CCC(C(=O)Nc3ccc(SC(F)F)cc3)(CC1=O)C2(C)C (stereo unspecified) to Nc1cc(C(=O)O)ccc1Nc1ccc(F)c(F)c1, the z-score falls from 0.519 to 0.0314.

Going from CNC(=S)N1CCc2ccccc2C1 to CCOC(=O)C1C(=O)Oc2ccc3ccccc3c2C1C1CCOC1=O (stereo unspecified), the z-score rises from -0.276 to -0.0876.

Going from CC(=O)N1CCN(c2nc(C)nc3sc4c(c23)CCC(C)C4)CC1 (stereo unspecified) to CCOC(=O)c1nn(-c2c(C)n(C)n(-c3ccccc3)c2=O)cc1O, the z-score falls from -0.559 to -0.788.

Compared with O=c1[nH]c(/C(Cl)=C/c2c(F)cccc2Cl)nc2cc(Cl)ccc12, C/C(=N/NC(=O)c1ccc(C)s1)c1cccc(NC(=O)COc2ccc(Cl)cc2C)c1 is lower in z-score: 0.654 for the first, 0.0218 for the second.

First: CCN(CC(=O)Nc1ccc([N+](=O)[O-])cc1OC)CC(=O)NC(C)(C)C
Second: CCN(CC)Cc1csc(C(N)=O)c1
The z-score of the first is lower: -0.246 for the first, -0.124 for the second.

First: COc1ccc(O)c(C=Nc2cc(NC(C)=O)c(Cl)cc2Cl)c1
Second: Cc1snc(S(=O)(=O)Cc2c(Cl)cccc2Cl)c1C#N
The z-score of the first is lower: -1.61 for the first, 0.0299 for the second.

For CCC1CCCCN1C(=O)CSc1nnc(-c2ccco2)o1 (stereo unspecified), the z-score was active: 11.1.
